Data published in US20100260668A1 (published 2010).

T1: PlGF (UniProt P49763-2 21-149, limits assumed)
T1 construct: bought antigen coated on the ELISA plate; also called Placental GF
T1 sequence (looked up): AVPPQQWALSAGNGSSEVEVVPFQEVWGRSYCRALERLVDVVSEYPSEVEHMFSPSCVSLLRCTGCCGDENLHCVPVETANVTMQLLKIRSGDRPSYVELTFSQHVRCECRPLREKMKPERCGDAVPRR

T2: VEGF (UniProt P15692 27-191, limits assumed)
T2 construct: bought antigen coated on the ELISA plate
T2 sequence (looked up): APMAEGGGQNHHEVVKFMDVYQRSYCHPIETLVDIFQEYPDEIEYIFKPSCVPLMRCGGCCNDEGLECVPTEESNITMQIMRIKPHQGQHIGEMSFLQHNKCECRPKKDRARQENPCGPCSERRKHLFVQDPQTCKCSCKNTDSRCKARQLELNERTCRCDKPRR

B1: DVD588 (bispecific antibody, human IgG1, kappa)
heavy: EVQLVESGGGLVQPGGSLRLSCAASGYTFTNYGMNWVRQAPGKGLEWVGWINTYTGEPTYAADFKRRFTFSLDTSKSTAYLQMNSLRAEDTAVYYCAKYPHYYGSSHWYFDVWGQGTLVTVSSASTKGPSVFPLAPQVQLQQSGAELVKPGASVKISCKASGYTFTDYYINWVKLAPGQGLEWIGWIYPGSGNTKYNEKFKGKATLTIDTSSSTAYMQLSSLTSEDTAVYFCVRDSPFFDYWGQGTLLTVSS[omitted - human IgG1 constant region]
light: DIQMTQSPSSLSASVGDRVTITCSASQDISNYLNWYQQKPGKAPKVLIYFTSSLHSGVPSRFSGSGSGTDFTLTISSLQPEDFATYYCQQYSTVPWTFGQGTKVEIKRTVAAPDIVLTQSPDSLAVSLGERVTMNCKSSQSLLNSGMRKSFLAWYQQKPGQSPKLLIYWASTRESGVPDRFTGSGSGTDFTLTISSVQAEDVAVYYCKQSYHLFTFGSGTKLEIKRTVAAPSVFIFPPSDEQLKSGTASVVCLLNNFYPREAKVQWKVDNALQSGNSQESVTEQDSKDSTYSLSSTLTLSKADYEKHKVYACEVTHQGLSSPVTKSFNRGEC
notes: HC linker long, LC linker short; also called DVD-Ig DVD588
B2: DVD580 (bispecific antibody, human IgG1, kappa)
heavy: B1 heavy
light: DIQMTQSPSSLSASVGDRVTITCSASQDISNYLNWYQQKPGKAPKVLIYFTSSLHSGVPSRFSGSGSGTDFTLTISSLQPEDFATYYCQQYSTVPWTFGQGTKVEIKRTVAAPSVFIFPPDIVLTQSPDSLAVSLGERVTMNCKSSQSLLNSGMRKSFLAWYQQKPGQSPKLLIYWASTRESGVPDRFTGSGSGTDFTLTISSVQAEDVAVYYCKQSYHLFTFGSGTKLEIKRTVAAPSVFIFPPSDEQLKSGTASVVCLLNNFYPREAKVQWKVDNALQSGNSQESVTEQDSKDSTYSLSSTLTLSKADYEKHKVYACEVTHQGLSSPVTKSFNRGEC
notes: HC linker long, LC linker long; also called DVD-Ig DVD580
B3: DVD529 (bispecific antibody, human IgG1, kappa, lambda)
heavy: EVQLQQSGPELEKPGASVKISCKASGYSFTGYNMNWVKQSNGKSLEWIGNIDPYFGGTNYNQKFKGKATLTVDKSSSTAYMQLKSLTSEDSAVYYCARNYDYDGGCFDYWGQGTTLTVSSASTKGPEVQLVESGGGLVQPGGSLRLSCAASGYTFTNYGMNWVRQAPGKGLEWVGWINTYTGEPTYAADFKRRFTFSLDTSKSTAYLQMNSLRAEDTAVYYCAKYPHYYGSSHWYFDVWGQGTLVTVSS[omitted - human IgG1 constant region]
light: QAVVTQESALTTSPGETVTLTCRSSTGAVTTSNYANWVQEKPDHLFTGLIGGTNNRAPGVPARFSGSLIGDKAALTITGAQTEDEAIYFCALWYSNHWVFGGGTKLTVLGQPKAAPSVTLFPPDIQMTQSPSSLSASVGDRVTITCSASQDISNYLNWYQQKPGKAPKVLIYFTSSLHSGVPSRFSGSGSGTDFTLTISSLQPEDFATYYCQQYSTVPWTFGQGTKVEIKRTVAAPSVFIFPPSDEQLKSGTASVVCLLNNFYPREAKVQWKVDNALQSGNSQESVTEQDSKDSTYSLSSTLTLSKADYEKHKVYACEVTHQGLSSPVTKSFNRGEC
notes: DVD-Ig; HC short, LC long linker; also called DVD529H; DVD529L
B4: DVD493 (bispecific antibody, human IgG1, kappa)
heavy: EVQLQQSGPELVKPGASVKMSCKASGYTFTSYVINWVKQKPGQGLEWIGLINPYNDGTKYNEKFKVKATLTSDKSSSTAYMELSSLTSEDSAVYYCASYYYGSRYYFDYWGQGTTLTVSSASTKGPSVFPLAPEVQLVESGGGLVQPGGSLRLSCAASGYTFTNYGMNWVRQAPGKGLEWVGWINTYTGEPTYAADFKRRFTFSLDTSKSTAYLQMNSLRAEDTAVYYCAKYPHYYGSSHWYFDVWGQGTLVTVSS[omitted - human IgG1 constant region]
light: DIQMTQSSSYLSVSLGGRVTITCKASDHINNWLAWYQQKPGNAPRLLISGATSLETGVPSRFSGSGSGKDYTLSITSLQTEDVATYYCQQYWSIPLTFGAGTKLELKRTVAAPSVFIFPPDIQMTQSPSSLSASVGDRVTITCSASQDISNYLNWYQQKPGKAPKVLIYFTSSLHSGVPSRFSGSGSGTDFTLTISSLQPEDFATYYCQQYSTVPWTFGQGTKVEIKRTVAAPSVFIFPPSDEQLKSGTASVVCLLNNFYPREAKVQWKVDNALQSGNSQESVTEQDSKDSTYSLSSTLTLSKADYEKHKVYACEVTHQGLSSPVTKSFNRGEC
notes: DVD-Ig; HC long, LC long linker; also called DVD493H; DVD493L
B5: DVD505 (bispecific antibody, human IgG1, kappa)
heavy: EVQLQQSGPELVKPGASVKMSCKASGYTFTSYVINWVKQKPGQGLEWIGLINPYNDGTKYNEKFKVKATLTSDKSSSTAYMELSSLTSEDSAVYYCASYYYGSRYYFDYWGQGTTLTVSSASTKGPEVQLVESGGGLVQPGGSLRLSCAASGYTFTNYGMNWVRQAPGKGLEWVGWINTYTGEPTYAADFKRRFTFSLDTSKSTAYLQMNSLRAEDTAVYYCAKYPHYYGSSHWYFDVWGQGTLVTVSS[omitted - human IgG1 constant region]
light: B4 light
notes: DVD-Ig; HC short, LC long linker; also called DVD505H; DVD505L
B6: DVD499 (bispecific antibody, human IgG1, kappa)
heavy: B4 heavy
light: DIQMTQSSSYLSVSLGGRVTITCKASDHINNWLAWYQQKPGNAPRLLISGATSLETGVPSRFSGSGSGKDYTLSITSLQTEDVATYYCQQYWSIPLTFGAGTKLELKRTVAAPDIQMTQSPSSLSASVGDRVTITCSASQDISNYLNWYQQKPGKAPKVLIYFTSSLHSGVPSRFSGSGSGTDFTLTISSLQPEDFATYYCQQYSTVPWTFGQGTKVEIKRTVAAPSVFIFPPSDEQLKSGTASVVCLLNNFYPREAKVQWKVDNALQSGNSQESVTEQDSKDSTYSLSSTLTLSKADYEKHKVYACEVTHQGLSSPVTKSFNRGEC
notes: DVD-Ig; HC long, LC short linker; also called DVD499H; DVD499L
B7: DVD475 (bispecific antibody, human IgG1, kappa)
heavy: EVQLVESGGGLVQPGGSLRLSCAASGFTFTDNWISWVRQAPGKGLEWVGYISPNSGFTYYADSVKGRFTISADTSKNTAYLQMNSLRAEDTAVYYCARDNFGGYFDYWGQGTLVTVSSASTKGPSVFPLAPEVQLVESGGGLVQPGGSLRLSCAASGYTFTNYGMNWVRQAPGKGLEWVGWINTYTGEPTYAADFKRRFTFSLDTSKSTAYLQMNSLRAEDTAVYYCAKYPHYYGSSHWYFDVWGQGTLVTVSS[omitted - human IgG1 constant region]
light: DIQMTQSPSSLSASVGDRVTITCRASQDVSTAVAWYQQKPGKAPKLLIYSASFLYSGVPSRFSGSGSGTDFTLTISSLQPEDFATTYYCQQSYTGTVTFGQGTKVEIKRTVAAPDIQMTQSPSSLSASVGDRVTITCSASQDISNYLNWYQQKPGKAPKVLIYFTSSLHSGVPSRFSGSGSGTDFTLTISSLQPEDFATYYCQQYSTVPWTFGQGTKVEIKRTVAAPSVFIFPPSDEQLKSGTASVVCLLNNFYPREAKVQWKVDNALQSGNSQESVTEQDSKDSTYSLSSTLTLSKADYEKHKVYACEVTHQGLSSPVTKSFNRGEC
notes: DVD-Ig; HC long, LC short linker; also called DVD475H; DVD475L
B8: DVD481 (bispecific antibody, human IgG1, kappa)
heavy: EVQLVESGGGLVQPGGSLRLSCAASGFTFTDNWISWVRQAPGKGLEWVGYISPNSGFTYYADSVKGRFTISADTSKNTAYLQMNSLRAEDTAVYYCARDNFGGYFDYWGQGTLVTVSSASTKGPEVQLVESGGGLVQPGGSLRLSCAASGYTFTNYGMNWVRQAPGKGLEWVGWINTYTGEPTYAADFKRRFTFSLDTSKSTAYLQMNSLRAEDTAVYYCAKYPHYYGSSHWYFDVWGQGTLVTVSS[omitted - human IgG1 constant region]
light: DIQMTQSPSSLSASVGDRVTITCRASQDVSTAVAWYQQKPGKAPKLLIYSASFLYSGVPSRFSGSGSGTDFTLTISSLQPEDFATTYYCQQSYTGTVTFGQGTKVEIKRTVAAPSVFIFPPDIQMTQSPSSLSASVGDRVTITCSASQDISNYLNWYQQKPGKAPKVLIYFTSSLHSGVPSRFSGSGSGTDFTLTISSLQPEDFATYYCQQYSTVPWTFGQGTKVEIKRTVAAPSVFIFPPSDEQLKSGTASVVCLLNNFYPREAKVQWKVDNALQSGNSQESVTEQDSKDSTYSLSSTLTLSKADYEKHKVYACEVTHQGLSSPVTKSFNRGEC
notes: DVD-Ig; HC short, LC long linker; also called DVD481H; DVD481L
B9: DVD523 (bispecific antibody, human IgG1, kappa)
heavy: EVQLQQSGPELEKPGASVKISCKASGYSFTGYNMNWVKQSNGKSLEWIGNIDPYFGGTNYNQKFKGKATLTVDKSSSTAYMQLKSLTSEDSAVYYCARNYDYDGGCFDYWGQGTTLTVSSASTKGPSVFPLAPEVQLVESGGGLVQPGGSLRLSCAASGYTFTNYGMNWVRQAPGKGLEWVGWINTYTGEPTYAADFKRRFTFSLDTSKSTAYLQMNSLRAEDTAVYYCAKYPHYYGSSHWYFDVWGQGTLVTVSS[omitted - human IgG1 constant region]
light: QAVVTQESALTTSPGETVTLTCRSSTGAVTTSNYANWVQEKPDHLFTGLIGGTNNRAPGVPARFSGSLIGDKAALTITGAQTEDEAIYFCALWYSNHWVFGGGTKLTVLGQPKAAPDIQMTQSPSSLSASVGDRVTITCSASQDISNYLNWYQQKPGKAPKVLIYFTSSLHSGVPSRFSGSGSGTDFTLTISSLQPEDFATYYCQQYSTVPWTFGQGTKVEIKRTVAAPSVFIFPPSDEQLKSGTASVVCLLNNFYPREAKVQWKVDNALQSGNSQESVTEQDSKDSTYSLSSTLTLSKADYEKHKVYACEVTHQGLSSPVTKSFNRGEC
notes: DVD-Ig; HC long, LC short linker; also called DVD523H; DVD523L

Experiments:
PlGF = biological target: T1, PlGF; assay: direct bind ELISA, C-terminal VD
VEGF = biological target: T2, VEGF; assay: direct bind ELISA, N-terminal VD
[1] = biological target: T3, DLL4 ECD/His tag (R&D 1506-D4-050) (UniProt Q9NR61 part only); assay: direct bind ELISA, DLL4 on plate; DLL4 VD N-term.; HC Short, LC Long
T3 construct: extracellular domain; Bought antigen coated on the ELISA plate; not shown: His tag

[2] = biological target: T3, DLL4 ECD/His tag (R&D 1506-D4-050); assay: direct bind ELISA, DLL4 on plate; DLL4 VD N-term.; HC Long, LC Long
[3] = biological target: T3, DLL4 ECD/His tag (R&D 1506-D4-050); assay: direct bind ELISA, DLL4 on plate; DLL4 VD N-term.; HC Long, LC Short

| Binder | EC50 [1] | EC50 [3] | further results |
| --- | --- | --- | --- |
| B1 | – | – | EC50 (PlGF): 1.84 nM; EC50 (VEGF): 4.1 nM |
| B2 | – | – | EC50 (PlGF): 34.1 nM |
| B3 | 0.1 nM | – | – |
| B4 | – | – | EC50 [2]: 0.06 nM |
| B5 | 0.09 nM | – | – |
| B6 | – | 0.09 nM | – |
| B7 | – | 0.23 nM | – |
| B8 | 3.3 nM | – | – |
| B9 | – | 0.09 nM | – |
